B1: CPEB3 Ribozyme (parent)
chain: UAACAGGGGGCCACAGCAGAAGCGUUCACGUCGCAGCCCCUGUCAGAUUCUGGUGAAUCUGCGAAUUCUGCUGUAUAUCUC

Here are results for 167 variants from the RNAGym collection of RNA variant scans (doi:10.1093/nar/gkz1192).

Read counts are not given, so values of variants with three or more changes are uncertain.

Variants of B1 are the subject of this data set. The experiment in a line: self-cleavage, relative activity (ratio to wild type); higher = more cleavage; in vitro, sequencing. The gist of the method:
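Relative activity was defined as the cleaved/total read fraction for a variant divided by the same fraction for the unmutated ribozyme. CPEB3 self-cleaving ribozyme libraries were made by rounds of error-prone PCR, barcoded, and transcribed in vitro with T7 RNA polymerase for 5 hours at 37°C, and cleavage ran through transcription plus a 15 min DNase I step before EDTA. Illumina sequencing of template-switched reverse transcripts gave the reads, and DNA sequencing mapped the barcodes. Averages come from three batches, using variants with at least 5 reads.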
Take A15U U31C U67C U78C: the self-cleavage stood at 0.12. As to C17U C62U U72C, the self-cleavage is 0.11. Regarding A18G A20U A35G U49A G52A, the self-cleavage is 0.26.

For the variant A15U C32U U43A A77U, the self-cleavage amounted to 0.55.

G16A A28U G33C: the self-cleavage was found to be 0.06. The result for G16A U31A C38U A47U U51G U66C reads 0.05; that for A18G A20U C32U U58C, 0.07. Consider A18G A20G C29U U78A, for which the self-cleavage is 0.07.

In the case of G16A U49C U58C, the self-cleavage came out at 0.1. The figure for G16A U26C U78C is 0.2; for A15U U26A A65G A77G it is 0.15. The result for A15U A56G U78C reads 0.45; that for A15U U43A U48C U67A C68G U80C, 0.1. On to A15U A64U A77G, for which the self-cleavage amounted to 0.14. The figure for C17G G33A U72C is 0.36; for A15U U26C A35U U41C U76A U78A it is 0.18.

Turning to A18C A21G G24A U43C, the self-cleavage was found to be 0.06. A15U U41A A64G U72A: the self-cleavage turned out to be 0.04. The figure for G16A A28G U48C U80C is 0.05; for A18C A20G C27G U76C it is 0.17. Regarding A15U C40U G63A A75G U80C, the self-cleavage came to 0.15.

A15U U41C U60A U67C: the self-cleavage turned out to be 0.3. The figure for A18G A20U U26A U78C is 0.15.

As for C17A U25C U43C A56G A65U U76A, the self-cleavage worked out at 0.05. Turning to C17U A28G A64G, the self-cleavage worked out at 0.13. The result for G16C A35G A47G U74C U78C reads 1.03; that for A15U U51G G61U U67C U78C, 0.08.

Consider A15U U54G U58C U78C, for which the self-cleavage was found to be 0.08. The result for C17A A18U G55C reads 0.13. The result for A15U U58G A77G C81A reads 0.21. The figure for C17U A18U U51G is 0.38.

Take C17G A21G U25C A45G U74A: the self-cleavage is 0.05.

Take C17U U43A G53U U74A U78C: the self-cleavage stood at 1.28.

As to G16U U49C C50U A56U U74A U76C, the self-cleavage came to 0.16. The figure for A15U A45U A77U is 0.33; for C17A A56U U80C it is 0.18. The figure for G16A G19C A20G U43C U58G U80C is 0.19; for A15U C44G A77C it is 0.09; for C17U U25C C68U it is 0.42. The figure for A15U U26A C34A U66G is 0.18; for C17U A20U U25C U67C U80A it is 0.02; for G16U U41C A45G G52A A65G U69G it is 0.16. Turning to G16A A18U A28G A57U U67C, the self-cleavage was 0.06. A18G A20U C40U U51C G63U A65G U72C: the self-cleavage was determined as 0.06.

In the case of C17U U31C U41A A64C U80C, the self-cleavage turned out to be 0.18. As to A18G A20G U26G U41A U60C, the self-cleavage was 0.05.

As to A15U U25C A64U, the self-cleavage was found to be 0.2. For A15U G33A U49A U78C, the self-cleavage turned out to be 0.17.

In the case of C17A A18G A21G U31C U43C, the self-cleavage turned out to be 0.04.

Take A15U A35U A45G G55A C62U A65C: the self-cleavage is 0.37. The figure for C17A A28U A35G U69C U74C is 0.16; for A15U U48A U49C U76C U78A it is 0.77.

For A18C U41A U72A, the self-cleavage came to 0.05. As for A18C C23U G52A A65U, the self-cleavage stood at 0.05.

Turning to G16U A28G U54A U58C U66C G70A, the self-cleavage amounted to 0.05.

For A15U A45G U78C, the self-cleavage was found to be 0.51. The result for A18C U49C U54C reads 0.33; that for C17U A45U A65G, 0.12; that for A18G A20U C44U A45G U60A U67C, 0.11. The figure for A15U U41C A65G U74A is 0.65; for G16U U25A A45G U54A it is 0.21; for A18G A20G G36U U43C A47G U76C it is 0.15. The result for G16A U41A G46A U51C U72C reads 0.1; that for C17U A18G C29A C34U U72A U76C U80A, 0.05. In the case of G16A A18U A20U U31C A35U, the self-cleavage turned out to be 0.05.

In the case of A18C U67A U72C U78C, the self-cleavage worked out at 0.11. For the variant A18C A28G U48C U54C U66C U80C, the self-cleavage stood at 0.06. The figure for A15U U41A U49C U51A U67C is 0.11; for C17U A45G A47G U67A A77G it is 0.06; for A15U G33A G52A it is 0.2.

On to A15U U26C A47G U66C U69A, for which the self-cleavage was 0.1. The figure for A15U U43C U66C U72A is 0.12.

On to A18G A20G U51A U54C A57U, for which the self-cleavage is 0.43.

Consider G16U U43A U48C A75G, for which the self-cleavage amounted to 0.25.

As to G16U A35G U69C U78A, the self-cleavage stood at 0.37. On to A18G A20G G33A A65U, for which the self-cleavage stood at 0.21.

Consider C17U A20G A21U, for which the self-cleavage is 0.34. The result for C17A A20G U31C A56U reads 0.19; that for C17A U25C U41C U51C U54A, 0.24. The figure for G16U A28U A56G U69C is 0.14. The figure for A18G A20G A64G U66C is 0.19; for C17G U54C C59U it is 0.34.

As to A18C A57G U67C, the self-cleavage is 0.09. The figure for G16C U25A U49C is 0.11. The figure for C17U A56G G61A A65G is 0.09. The figure for A18C C23U A47G is 0.18; for A18C A45G U60A it is 0.13. As for A15U A45G U54C U58G U72C, the self-cleavage was 0.09. With A15U G19U A28C A56G G63U, the self-cleavage is 0.12. As for A18C G33A A47U U48C U49C C62U, the self-cleavage came out at 0.06. The result for A15U A64U U74A reads 0.15; that for C17U G19A U25A U41C U54G, 0.07.

A15U U41A U51C U76A: the self-cleavage is 0.27. As for C17U G24A U51C U69C, the self-cleavage amounted to 0.06.

Take A18C U25C A28G C34U C40U U80A: the self-cleavage was 0.06. The result for G16U C37G U54C U67C reads 0.07; that for A15U U69A U74C A77C, 0.42; that for A15U G33A A57C, 0.25. The figure for A15U C37G U80C is 0.59; for A18C U26C A56G it is 0.03; for C17G G33A C39A it is 0.31. Turning to A15U G30U A45U, the self-cleavage was 0.15. On to G16A U26A A47G U51A, for which the self-cleavage was determined as 0.13. As to C17G A47G U69C U78C, the self-cleavage is 0.04. In the case of A18C G46U U80A, the self-cleavage was 0.11. The result for C17A A18G U54A reads 0.38. In the case of A15U C50U U66C, the self-cleavage came to 0.

With A15U U31A U58C, the self-cleavage was 0.19. The figure for A18C A35G A47G U54C is 0.81.

As for G16A C37G C68U, the self-cleavage came to 0.21. The figure for G16U U43C U58C U67C U72C is 0.06; for A15U G52C A57G U60A U67C it is 0.06; for G16U G36U U72C it is 0.09. The figure for A15U U41C C62U U72A is 0.13; for G16A U43C A65U U72A it is 0.38; for A15U C38U A56U it is 0.31. Regarding A15U G46A G52U, the self-cleavage was found to be 0.23.

Turning to G16A U48C U80A, the self-cleavage was found to be 0.42. Consider G16A A45U A65U, for which the self-cleavage turned out to be 0.37. Regarding A18G A20C U25A U41C U67C, the self-cleavage was found to be 0.25. Take A15U A56C U58C U69C A75G U76C: the self-cleavage turned out to be 0.42.

As for A15U U54C U76C, the self-cleavage stood at 0.68. The result for A15U U41G U58C A64G U72C reads 0.15; that for G16C A21U U51A, 0.16; that for A15U G33C U54G, 0.14. The result for A15U A56G A65G reads 0.19; that for A15U U25C U26A, 0.31. The result for C17G U26C A47G A64G reads 0.09. With A18G A20G A21U U43A C50A, the self-cleavage came out at 0.11. The figure for G16A A56U G70C is 0.11. The result for A18C A35G A64G reads 0.56; that for A15U U26C U54C A57G, 0.15.

For the variant C17G A45G A65U, the self-cleavage turned out to be 0.29. The result for A15U C40U U60A reads 0.11. For the variant C17U A45U U67A, the self-cleavage was found to be 0.16. As for C17U G36U A56U U72C, the self-cleavage turned out to be 0.09. Take C17G G24A U26A C32A U78A: the self-cleavage is 0.06.

For A15U U41A U49A A57G U66C U72C, the self-cleavage amounted to 0.09. The result for A15U U60A U67C reads 0.1; that for C17G C40G G73U, 0.25. The figure for A18C U25C A35G C38U A65G U74C is 0.32. The result for A15U U41A U48C U78C reads 0.13; that for C17A U25A U26C A57G U66A, 0.05. As for G16C A21G U41C A45G G70A U80C, the self-cleavage amounted to 0.08. The figure for C17A U31A U78C is 0.31; for G16U G30U U51C A57G U58C it is 0.05. The figure for G16A G46C C59U is 0.07; for C17U U26A U43C A47U U51A C62U it is 0.05.

As for C17U U41C U49C A65G U69G, the self-cleavage is 0.08. In the case of A15U G16A U25C G73A, the self-cleavage was 0.06. In the case of G16A A21G C39U, the self-cleavage came to 0.17. On to A18G A20C A28C U80C, for which the self-cleavage was determined as 0.05. The figure for A18C G36A U80C is 0.16. Regarding C17U U58C A64G U66C G73U, the self-cleavage stood at 0.17.

Regarding A18C U78C C81U, the self-cleavage was 0.5. The figure for A15U G36A A64G is 0.17. Regarding C17G U26A U51C U60C, the self-cleavage is 0.06. The result for A15U A35G U43A A45G U69C U76G reads 0.25; that for A15U A35G U41A U69A, 0.14; that for A18C G42U A57G U66A, 0.16. Regarding C17A A56U U72G U80C, the self-cleavage was 0.26. Turning to A15U C29G U31A U49C A65U U67A U78C, the self-cleavage stood at 0.06. The result for A15U U26C U66C U74A reads 0.06; that for A15U U26C A35G U67C, 0.15.

In the case of C17U A35G U41A A45G A47G U58A A75G, the self-cleavage was 0.05. The figure for A15U A35G U41A A57G A64U U66C is 0.07; for A15U A64G U69A G70C U78A it is 0.13.
